# This is one part of the list. Each Rep nickase domain was tested in vitro on the same pool of single strands (1 h at 37 °C, 3 µM enzyme); the outer parts of the 90-letter strands are left off. Values are log2 of uncut reads against the no-enzyme pool; strong cutting gives strongly negative numbers. There is no active / inactive call. Reads are scaled to the total, so uncut sequences can rise above 0 when many others are cut.
# Tests used:
# Assay in all cases: uncleaved DNA left, log2 of reads against the no-enzyme library (log2 ratio); higher = less cleavage (more negative = more Rep cleavage of the k-mer); sequences stand for … in CTCGTCCG…ACCGGAGA
# [1] = tested on: T1, Rep nickase domain of Muscovy duck circovirus
# T1 sequence (protein, residues 1-111, tag omitted): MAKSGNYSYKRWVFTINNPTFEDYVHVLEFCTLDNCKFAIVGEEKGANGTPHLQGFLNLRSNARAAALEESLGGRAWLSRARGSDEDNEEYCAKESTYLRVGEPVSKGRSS
# Procedure: (§1)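 A pool of 90-nt single-stranded DNAs with seven random bases just before the constant AC of the nick site (name = the seven bases) was cut by 3 µM recombinant His6-SUMO-tagged Rep nickase domain (300 nM DNA, 50 mM HEPES pH 8.0, 50 mM NaCl, 1 mM MnCl2, 1 h, 37 °C, three replicates). Uncut DNA was amplified and sequenced.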
# [2] = tested on: T2, Rep nickase domain of banana bunchy top virus
# T2 sequence (protein, residues 1-94, tag omitted): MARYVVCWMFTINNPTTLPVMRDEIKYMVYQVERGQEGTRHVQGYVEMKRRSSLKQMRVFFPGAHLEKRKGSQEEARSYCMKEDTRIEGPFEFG
# Procedure: as §1
# [3] = tested on: T3, Rep nickase domain of cabbage leaf curl virus
# T3 sequence (protein, residues 1-116, tag omitted): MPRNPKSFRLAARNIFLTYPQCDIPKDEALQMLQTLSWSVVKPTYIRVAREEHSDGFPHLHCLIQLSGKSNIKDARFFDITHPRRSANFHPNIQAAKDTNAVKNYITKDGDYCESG
# Procedure: as §1
# [4] = tested on: T4, Rep nickase domain of chickpea chlorotic dwarf virus
# T4 sequence (protein, residues 1-124, tag omitted): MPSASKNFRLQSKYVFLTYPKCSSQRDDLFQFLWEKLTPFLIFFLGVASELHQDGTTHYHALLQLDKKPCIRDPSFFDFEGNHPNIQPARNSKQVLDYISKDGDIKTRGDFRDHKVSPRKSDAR
# Procedure: as §1
# [5] = tested on: T5, Rep nickase domain of faba bean necrotic yellows virus
# T5 sequence (protein, residues 1-98, tag omitted): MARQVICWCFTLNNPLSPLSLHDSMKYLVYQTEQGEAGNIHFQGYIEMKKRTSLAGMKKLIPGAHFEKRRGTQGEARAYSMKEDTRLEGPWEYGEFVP
# Procedure: as §1
# [6] = tested on: T6, Rep nickase domain of maize striate mosaic virus
# T6 sequence (protein, residues 1-117, tag omitted): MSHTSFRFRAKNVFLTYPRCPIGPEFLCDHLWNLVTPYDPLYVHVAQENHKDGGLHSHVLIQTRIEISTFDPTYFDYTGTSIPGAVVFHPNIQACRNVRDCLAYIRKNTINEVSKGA
# Procedure: as §1
# [7] = tested on: T7, Rep nickase domain of porcine circovirus 2
# T7 sequence (protein, residues 2-116, tag omitted): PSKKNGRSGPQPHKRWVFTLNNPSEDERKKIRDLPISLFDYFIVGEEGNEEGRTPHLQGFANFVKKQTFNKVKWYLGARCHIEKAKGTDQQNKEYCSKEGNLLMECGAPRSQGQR
# Procedure: as §1
# [8] = tested on: T8, Rep nickase domain of tomato golden mosaic virus
# T8 sequence (protein, residues 1-124, tag omitted): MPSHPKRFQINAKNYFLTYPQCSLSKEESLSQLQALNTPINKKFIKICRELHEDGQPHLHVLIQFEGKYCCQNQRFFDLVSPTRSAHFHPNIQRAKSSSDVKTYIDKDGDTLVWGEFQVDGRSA
# Procedure: as §1
# [9] = tested on: T9, Rep nickase domain of tomato yellow leaf curl virus
# T9 sequence (protein, residues 1-136, tag omitted): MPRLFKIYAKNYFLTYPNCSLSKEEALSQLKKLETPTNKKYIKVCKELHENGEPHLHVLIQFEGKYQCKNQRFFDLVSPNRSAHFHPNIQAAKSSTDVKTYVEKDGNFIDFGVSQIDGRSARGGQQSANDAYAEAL
# Procedure: as §1
# [10] = tested on: T10, Rep nickase domain of wheat dwarf virus
# T10 sequence (protein, residues 1-137, tag omitted): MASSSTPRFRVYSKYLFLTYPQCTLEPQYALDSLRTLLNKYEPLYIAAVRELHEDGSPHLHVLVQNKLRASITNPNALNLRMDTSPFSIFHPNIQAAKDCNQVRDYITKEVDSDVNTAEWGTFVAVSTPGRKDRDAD
# Procedure: as §1
Sequence,uncleaved DNA left (log2) [1],uncleaved DNA left (log2) [2],uncleaved DNA left (log2) [3],uncleaved DNA left (log2) [4],uncleaved DNA left (log2) [5],uncleaved DNA left (log2) [6],uncleaved DNA left (log2) [7],uncleaved DNA left (log2) [8],uncleaved DNA left (log2) [9],uncleaved DNA left (log2) [10]
AGAAGAT,0.0154,0.0534,0.238,1.34,0.00159,1.63,0.216,0.141,-0.109,-0.0077
TCTCGAC,0.095,-0.0954,0.139,-0.546,0.0135,-0.216,-0.0135,0.117,-0.0017,-0.103
GAAGCAT,-0.0623,0.103,0.58,1.34,-0.0795,1.77,0.0684,-0.0432,-0.0174,0.0136
CGAAGTT,0.0136,0.049,-0.171,-1.49,0.0611,-0.364,-0.21,-0.0607,0.0789,-0.0893
ACGTGTC,-0.057,-0.204,-0.279,-0.209,-0.167,-0.642,-0.0268,-0.0813,-0.102,-0.128
TGTATAG,0.143,0.0399,-0.59,-0.414,0.156,-0.901,0.259,0.0764,0.127,0.101
TCAATAA,-0.0421,0.0249,-0.0392,-0.199,-0.012,-0.601,0.0525,0.0585,0.0288,-0.00884
GGTCCTT,-0.0592,0.0668,0.531,1.04,-0.104,1.96,0.0454,-0.00097,0.0989,0.141
GAAAAAA,0.00141,0.0393,0.223,0.308,0.0234,0.416,0.166,0.0688,0.0736,0.0585
CGTATAA,0.11,0.0189,-0.0132,-0.048,0.0375,-0.414,0.0406,0.0436,0.164,0.161
TGAAGCT,-0.00603,-0.109,-0.154,-0.791,-0.0313,-0.494,0.0644,-0.0475,-0.132,-0.0775
TCAGATA,0.0876,-9.52e-05,0.0432,-0.692,0.0887,0.168,0.0867,0.15,0.0113,0.0562
GCGCGGG,0.0369,0.0401,-0.135,0.0907,0.0163,0.135,0.1,-0.0066,0.0482,-0.108
CAGGCCC,-0.138,-0.0708,0.00965,0.294,-0.0613,0.447,-0.0885,-0.0718,-0.125,-0.0185
GACCCTC,-0.0212,0.0593,0.699,1.18,-0.00233,1.52,-0.0699,0.0587,0.0775,0.0472
ATTCCGC,-0.00606,-0.0322,-0.374,-0.575,0.036,-1,-0.571,-0.105,-0.0379,0.0626

# Source: the supplement of paper PMC7826260
